31 variants from the GPR68 mutational scans of Howard et al. (2025) can be followed below.

B1: GPR68, Q15743 (parent)
chain: MGNITADNSSMSCTIDHTIHQTLAPVVYVTVLVVGFPANCLSLYFGYLQIKARNELGVYLCNLTVADLFYICSLPFWLQYVLQHDNWSHGDLSCQVCGILLYENIYISVGFLCCISVDRYLAVAHPFRFHQFRTLKAAVGVSVVIWAKELLTSIYFLMHEEVIEDENQHRVCFEHYPIQAWQRAINYYRFLVGFLFPICLLLASYQGILRAVRRSHGTQKSRKDQIQRLVLSTVVIFLACFLPYHVLLLVRSVWEASCDFAKGVFNAYHFSLLLTSFNCVADPVLYCFVSETTHRDLARLRGACLAFLTCSRTGRAREAYPLGAPEASGKSGAQGEEPELLTKLHPAFQTPNSPGSGGFPTGRLA

Variants of B1 are the subject of series [1]. The series can be described thus: cAMP reporter score (Enrich2 score, wild type = 0); higher = more signal; HEK293T, FACS bins.
Variants of B1 are the subject of series [2]. The series can be described thus: surface expression score (Enrich2 score, wild type = 0); higher = more signal; HEK293T, FACS bins.

Scores with a large standard error are left out. Not listed are two conditions whose scores span a narrow range. Names with del lack the residues named; names with ins carry added residues between the positions named. For some of these results: The data file names ogerin without a concentration.

As for E149_L150insG, the cAMP reporter score in series [1] (pH 5.5) was -1.52; in series [1] (pH 6) it was -1.54; in series [1] (pH 6, modulator: ogerin), -1.22; in series [1] (pH 6.5, modulator: ogerin), -0.937. In series [2], the surface expression score was -0.705.

For the variant E160_E161del, the cAMP reporter score was -1.65 in series [1] (pH 5.5); -0.481 in series [1] (pH 6); -1.3 in series [1] (pH 6, modulator: ogerin); -1.1 in series [1] (pH 6.5, modulator: ogerin). Further, the surface expression score in series [2] came to 1.87.

With V162_I163insGS, the cAMP reporter score in series [1] (pH 5.5) is -1.51; in series [1] (pH 6), -0.702; in series [1] (pH 6, modulator: ogerin), -1.1; in series [1] (pH 6.5, modulator: ogerin), -1.46. Further, the surface expression score in series [2] was -0.094.

For E164_D165del, the cAMP reporter score was -1.03 in series [1] (pH 5.5); -0.587 in series [1] (pH 6); -1.64 in series [1] (pH 6, modulator: ogerin); -1.46 in series [1] (pH 6.5, modulator: ogerin). Besides, the surface expression score in series [2] was 0.87.

E161_I163del: the cAMP reporter score is -0.587 in series [1] (pH 5.5); -0.801 in series [1] (pH 6); -1.65 in series [1] (pH 6, modulator: ogerin); -0.565 in series [1] (pH 6.5, modulator: ogerin). Moreover, in series [2], the surface expression score amounted to 2.51.

Turning to S153_I154insGS, the cAMP reporter score in series [1] (pH 5.5) was -1.27; in series [1] (pH 6) it was -1.31; in series [1] (pH 6, modulator: ogerin), -1.03; in series [1] (pH 6.5, modulator: ogerin) it was -1.21. Further, in series [2], the surface expression score was found to be 0.202.

Take H159_E161del: the cAMP reporter score in series [1] (pH 5.5) is -1.6; in series [1] (pH 6) it was -1.29; in series [1] (pH 6, modulator: ogerin), -1.89; in series [1] (pH 6.5, modulator: ogerin) it was -1.52. Besides, in series [2], the surface expression score is 0.392.

With L157_M158del, the cAMP reporter score in series [1] (pH 5.5) is -1.8; in series [1] (pH 6), -1.29; in series [1] (pH 6, modulator: ogerin) it was -1.3; in series [1] (pH 6.5, modulator: ogerin) it was -0.858. In addition, the surface expression score in series [2] is -2.29.

For the variant H159_E160del, the cAMP reporter score in series [1] (pH 5.5) was -0.977; in series [1] (pH 6) it was -1.06; in series [1] (pH 6, modulator: ogerin) it was -1.3; in series [1] (pH 6.5, modulator: ogerin), -1.36. Further, in series [2], the surface expression score amounted to 0.665.

For E161_V162del, the cAMP reporter score in series [1] (pH 5.5) was -1.25; in series [1] (pH 6) it was -0.516; in series [1] (pH 6, modulator: ogerin), -0.536; in series [1] (pH 6.5, modulator: ogerin), -0.673. In addition, in series [2], the surface expression score amounted to 2.24.

Turning to T152_S153del, the cAMP reporter score in series [1] (pH 5.5) is -1.16; in series [1] (pH 6), -1.6; in series [1] (pH 6, modulator: ogerin), -1.37; in series [1] (pH 6.5, modulator: ogerin), -1.27. The surface expression score in series [2] was -1.55.

For L150del, the cAMP reporter score in series [1] (pH 5.5) is -0.704; in series [1] (pH 6), -0.279; in series [1] (pH 6, modulator: ogerin), -1.21; in series [1] (pH 6.5, modulator: ogerin), -0.691. Also, in series [2], the surface expression score came out at 0.4.

In the case of I163_E164del, the cAMP reporter score in series [1] (pH 5.5) is -0.979; in series [1] (pH 6) it was -0.907; in series [1] (pH 6, modulator: ogerin), -0.701; in series [1] (pH 6.5, modulator: ogerin) it was -0.984. Further, the surface expression score in series [2] came out at 2.07.

Regarding T152del, the cAMP reporter score in series [1] (pH 5.5) was 0.224; in series [1] (pH 6), -0.27; in series [1] (pH 6, modulator: ogerin), -0.774; in series [1] (pH 6.5, modulator: ogerin), -0.412. Also, the surface expression score in series [2] was found to be 1.98.

As to D165A, the cAMP reporter score in series [1] (pH 5.5) was 0.081; in series [1] (pH 6), -0.529; in series [1] (pH 6, modulator: ogerin), -0.246; in series [1] (pH 6.5, modulator: ogerin), -0.464. Also, the surface expression score in series [2] is 1.7.

On to D165E, for which the cAMP reporter score in series [1] (pH 5.5) was -0.761; in series [1] (pH 6), -0.651; in series [1] (pH 6, modulator: ogerin), -0.542; in series [1] (pH 6.5, modulator: ogerin), -0.784. For the same variant, the surface expression score in series [2] was 1.51.

As to D165F, the cAMP reporter score was -0.56 in series [1] (pH 5.5); -0.512 in series [1] (pH 6); -0.956 in series [1] (pH 6, modulator: ogerin); -1.42 in series [1] (pH 6.5, modulator: ogerin). Moreover, the surface expression score in series [2] was 0.545.

Regarding D165C, the cAMP reporter score is -1.47 in series [1] (pH 5.5) and 1.69 in series [1] (pH 6, modulator: ogerin).

Consider W146_A147insGS, for which the cAMP reporter score in series [1] (pH 5.5) was -2; in series [1] (pH 6), -0.668; in series [1] (pH 6, modulator: ogerin) it was -1.25; in series [1] (pH 6.5, modulator: ogerin) it was -1.39. Further, the surface expression score in series [2] is -2.15.

In the case of W146_A147insGSG, the cAMP reporter score in series [1] (pH 5.5) is -0.924; in series [1] (pH 6), -1.09; in series [1] (pH 6.5, modulator: ogerin), -0.741.

As for I163M, the cAMP reporter score is -0.849 in series [1] (pH 5.5); 0.064 in series [1] (pH 6); -0.413 in series [1] (pH 6, modulator: ogerin); -0.079 in series [1] (pH 6.5, modulator: ogerin). Also, in series [2], the surface expression score was -0.094.

I163P: the cAMP reporter score was -1.01 in series [1] (pH 5.5); 0.063 in series [1] (pH 6); -0.336 in series [1] (pH 6, modulator: ogerin); -0.253 in series [1] (pH 6.5, modulator: ogerin). In series [2], the surface expression score was 0.698.

Turning to I163R, the cAMP reporter score in series [1] (pH 5.5) was -0.61; in series [1] (pH 6), 0.308; in series [1] (pH 6, modulator: ogerin), 0.316; in series [1] (pH 6.5, modulator: ogerin), -0.101. Further, the surface expression score in series [2] came to 0.513.

Consider I163C, for which the cAMP reporter score in series [1] (pH 5.5) is -0.226; in series [1] (pH 6), -0.589; in series [1] (pH 6, modulator: ogerin) it was -0.472; in series [1] (pH 6.5, modulator: ogerin), -0.849. Also, the surface expression score in series [2] is -0.656.

On to I163H, for which the cAMP reporter score is 0.236 in series [1] (pH 5.5); 0.5 in series [1] (pH 6, modulator: ogerin); 2.22 in series [1] (pH 6.5, modulator: ogerin). In addition, the surface expression score in series [2] is -0.115.

Take I163V: the cAMP reporter score in series [1] (pH 5.5) was 1.21; in series [1] (pH 6), 1.73; in series [1] (pH 6, modulator: ogerin), 1.35; in series [1] (pH 6.5, modulator: ogerin) it was 2.99. In series [2], the surface expression score stood at 0.609.

In the case of I163N, the cAMP reporter score in series [1] (pH 5.5) is -0.23; in series [1] (pH 6) it was -0.039; in series [1] (pH 6, modulator: ogerin) it was -0.133; in series [1] (pH 6.5, modulator: ogerin), -0.473. Moreover, in series [2], the surface expression score was 0.132.

On to I163Q, for which the cAMP reporter score is -0.031 in series [1] (pH 5.5); 0.402 in series [1] (pH 6); -0.06 in series [1] (pH 6, modulator: ogerin); 0.233 in series [1] (pH 6.5, modulator: ogerin). Moreover, the surface expression score in series [2] was -1.09.

Regarding I163E, the cAMP reporter score in series [1] (pH 5.5) was -0.11; in series [1] (pH 6), -0.812; in series [1] (pH 6, modulator: ogerin), -0.178; in series [1] (pH 6.5, modulator: ogerin) it was 0.804. Further, the surface expression score in series [2] is -0.701.

Turning to I163S, the cAMP reporter score was determined as 0.343 in series [1] (pH 5.5); 1.44 in series [1] (pH 6, modulator: ogerin); 2.21 in series [1] (pH 6.5, modulator: ogerin). The surface expression score in series [2] was 0.604.

I163G: the cAMP reporter score is -0.648 in series [1] (pH 5.5); -0.935 in series [1] (pH 6); -0.383 in series [1] (pH 6, modulator: ogerin); -1.58 in series [1] (pH 6.5, modulator: ogerin). In addition, in series [2], the surface expression score is -0.073.
